Measurements from the supplement of paper PMC10126150.
Values marked as one replicate rest on one cluster of the flow cell; about a third of the high ones do not repeat.

These sequences were tested on ATP (assay: switch fluorescence ratio, 500 uM ATP over buffer (Cy3 cluster intensity, sum of 5 cycles each) (fold (ratio)); higher = stronger signal-on switching upon ATP binding; sequences stand for … in TCGTCGGCAGCGTCAGATGTGTATAAGAGACAGTTTTTTTTTTTTTTTTTTTTTTTTT…TC). Details: aptamer strand: ATP DNA aptamer (quencher-CACCTGGGGGAGTATTGCGGAGGAAGG + anchor), 100 nM annealed; ATP concentration: 500 uM; one replicate.
How it was run: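 Exposure to 500 uM ATP lasted 15 min at 22 °C before imaging, and a selection-buffer image was taken beforehand, for Cy3-labelled switching-strand clusters on a modified Illumina MiSeq flow-cell annealed to 100 nM quencher-labelled ATP aptamer. Five buffer/ATP cycles were run with NaOH stripping and re-annealing between them. The fluorescence ratio per cluster is summed target-cycle over summed buffer-cycle Cy3 intensity, averaged per switch-domain sequence. Clusters outside 100-1000 RFU were excluded.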
TGATCTTTTT gave a switch fluorescence ratio of 0.982.
With TGATGAGAGC the switch fluorescence ratio was 1.11.
Sequence TGATGAGCTT has a switch fluorescence ratio of 1.01.
Sequence TGATGATAAT has a switch fluorescence ratio of 0.926.
TGATGCATCT showed a switch fluorescence ratio of 1.01.
In the case of TGATGCCTGT, the switch fluorescence ratio is reported as 0.979.
Work on TGATGCTCG yielded a switch fluorescence ratio of 0.968.
TGATGGAA showed a switch fluorescence ratio of 0.948.
TGATGTTTTG showed a switch fluorescence ratio of 0.988.
TGATTAAAAG was tested, and the switch fluorescence ratio was 0.948.
TGATTAGCA gave a switch fluorescence ratio of 1.01.
TGATTAGTAC gave a switch fluorescence ratio of 0.983.
For TGATTATACT, the switch fluorescence ratio was 1.05.
TGATTATATG was tested, and the switch fluorescence ratio was 1.02.
TGATTATCCG was tested, and the switch fluorescence ratio was 0.963.
With TGATTCCAGG the switch fluorescence ratio was 1.17.
TGATTCGATA was tested, and the switch fluorescence ratio was 1.01.
Work on TGATTGAAGT yielded a switch fluorescence ratio of 0.95.
For TGATTGCATG, the switch fluorescence ratio was 0.98.
For TGATTGGGAT, the switch fluorescence ratio was 0.972.
TGATTGTCAC gave a switch fluorescence ratio of 1.01.
TGATTTCTAG showed a switch fluorescence ratio of 0.991.
With TGATTTGAGT the switch fluorescence ratio was 1.03.
Work on TGATTTGCAG yielded a switch fluorescence ratio of 1.03.
Sequence TGATTTGCTT has a switch fluorescence ratio of 0.997.
TGCAAACGTA showed a switch fluorescence ratio of 1.09.
Work on TGCAACAATT yielded a switch fluorescence ratio of 0.982.
Sequence TGCAAGAACG has a switch fluorescence ratio of 0.995.
Sequence TGCAAGACAC has a switch fluorescence ratio of 2.03.
Sequence TGCAAGTAAA has a switch fluorescence ratio of 1.04.
TGCAAGTCGG was tested, and the switch fluorescence ratio was 1.
For TGCAAGTTAG, the switch fluorescence ratio was 1.02.
TGCACAAGGG gave a switch fluorescence ratio of 1.02.
In the case of TGCACACGTT, the switch fluorescence ratio is reported as 1.01.
TGCACAGCTA was tested, and the switch fluorescence ratio was 1.07.
Sequence TGCACGAAG has a switch fluorescence ratio of 1.03.
In the case of TGCACGTAAC, the switch fluorescence ratio is reported as 1.69.
For TGCACGTTGA, the switch fluorescence ratio was 1.
TGCACTGCAT was tested, and the switch fluorescence ratio was 1.04.
Work on TGCACTTCTT yielded a switch fluorescence ratio of 0.955.
Sequence TGCAGATTGA has a switch fluorescence ratio of 1.05.
With TGCAGCAGGG the switch fluorescence ratio was 0.994.
Sequence TGCAGCGGAT has a switch fluorescence ratio of 0.987.
With TGCAGGCCGA the switch fluorescence ratio was 0.957.
Work on TGCAGGTG yielded a switch fluorescence ratio of 2.26.
Sequence TGCAGGTGAC has a switch fluorescence ratio of 1.48.
Sequence TGCAGTATAG has a switch fluorescence ratio of 1.
TGCAGTTA was tested, and the switch fluorescence ratio was 0.962.
TGCATACAAG was tested, and the switch fluorescence ratio was 0.976.
With TGCATACCAG the switch fluorescence ratio was 1.05.
TGCATATTGA gave a switch fluorescence ratio of 1.22.
In the case of TGCATATTGT, the switch fluorescence ratio is reported as 1.
In the case of TGCATATTTG, the switch fluorescence ratio is reported as 0.967.
TGCATCAGGA showed a switch fluorescence ratio of 1.
With TGCATCATTT the switch fluorescence ratio was 0.966.
TGCATCGTCG showed a switch fluorescence ratio of 1.2.
In the case of TGCATGCTCT, the switch fluorescence ratio is reported as 1.
Work on TGCATTGCGT yielded a switch fluorescence ratio of 1.04.
TGCATTTATC gave a switch fluorescence ratio of 1.08.
TGCCAAAAG gave a switch fluorescence ratio of 0.976.
In the case of TGCCAAAAGG, the switch fluorescence ratio is reported as 1.02.
TGCCAATCGT gave a switch fluorescence ratio of 1.
Work on TGCCAATTT yielded a switch fluorescence ratio of 0.992.
Work on TGCCAGACGC yielded a switch fluorescence ratio of 1.04.
In the case of TGCCAGGGCG, the switch fluorescence ratio is reported as 0.992.
For TGCCAGTTGA, the switch fluorescence ratio was 1.04.
With TGCCATTTGA the switch fluorescence ratio was 0.99.
TGCCCACGCA showed a switch fluorescence ratio of 1.07.
TGCCCATTTT was tested, and the switch fluorescence ratio was 1.
Work on TGCCCCCCTT yielded a switch fluorescence ratio of 1.08.
TGCCCGAAGA showed a switch fluorescence ratio of 1.
For TGCCCGATAC, the switch fluorescence ratio was 3.39.
TGCCCGGCGA was tested, and the switch fluorescence ratio was 1.21.
Work on TGCCCTTCGG yielded a switch fluorescence ratio of 0.995.
Sequence TGCCGATCGA has a switch fluorescence ratio of 1.05.
TGCCGCTTCA gave a switch fluorescence ratio of 1.
